Experiments:
[1] = molecular target: human ERBB3 human Fc tagged recombinant protein (human) (UniProt P21860); assay: direct binding ELISA on coated human ERBB3-Fc, IgG1 titrated
[2] = molecular target: rhesus monkey ERBB3 human Fc tagged recombinant protein (rhesus monkey (Macaca mulatta)); assay: direct binding ELISA on coated rhesus ERBB3-Fc, IgG1 titrated
[3] = molecular target: T1, human ERBB3 His tagged, monomeric (human, UniProt P21860 partial chain, biotinylated in the Alphascreen assays (sites not given)); assay: Alphascreen competition, solution phase; competitor h24C05 IgG1
T1 construct: Used unbiotinylated as Biacore analyte and biotinylated in Alphascreen; treated as one molecule; also called human ERBB3-His (Acrobiosystems); biotinylated monomeric human ERBB3

EC50 (read off the curve) [1]: 0.1 nM | EC50 (read off the curve) [2]: 0.1 nM | IC50 [3]: 0.16 nM
B1: chimeric 24C05 IgG1 (antibody, from another filing)
heavy: EVQLVESGGGLVKPGGSLKLSCAASGFTFSDYAMSWVRQTPEKRLEWVATISDGGTYTYYPDNVKGRFTISRDNAKNNLYLQMSHLKSEDTAMYYCAREWGDYDGFDYWGQGTTLTVSSASTKGPSVFPLAPSSKSTSGGTAALGCLVKDYFPEPVTVSWNSGALTSGVHTFPAVLQSSGLYSLSSVVTVPSSSLGTQTYICNVNHKPSNTKVDKRV[in this place human IgG1 Fc]
light: DIQMTQSPSSLSASLGERVSLTCRASQEISGYLSWLQQKPDGTIKRLIYAASTLDSGVPKRFSGSRSGSDYSLTIGSLESEDLADYYCLQYDSYPYTFGGGTKLEIKRTVAAPSVFIFPPSDEQLKSGTASVVCLLNNFYPREAKVQWKVDNALQSGNSQESVTEQDSKDSTYSLSSTLTLSKADYEKHKVYACEVTHQGLSSPVTKSFNRGEC
